Results reported in the supplement of paper PMC4967469.
The IC50 comes from the fitted curve, where viability falls to half of the control; fits outside the tested doses are given as limits. AUC, from the same fit, is the share of area under the viability curve across the 256-fold dose range; it is 1 without any effect and falls as sensitivity rises. For part of these data: An inferred top dose comes from the curve model; the source does not state it. For part of these data: Where an entry number is given, a second screen of the drug exists; the two often differ.

Assays:
Assay in all cases: Viability of human cancer cell lines after 72 h of drug (GDSC screen)
FTI-277 = compound: COC(=O)[C@H](CCSC)NC(=O)c1ccc(NC[C@@H](N)CS)cc1-c1ccccc1 [FTI-277]; conditions: top dose 1.024 µM; top dose inferred
Method: (§1)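 Human cancer cell lines in 384-well plates, medium with 10% serum, drug for 72 h over a 256-fold dose range (nine 2-fold or five 4-fold steps up to the top dose). Adherent lines were fixed and stained with the nucleic acid dye Syto60, suspension lines read with resazurin; signal relative to control wells, capped at 0 and 100%. One two-parameter sigmoid per drug and line, fitted in a mixed model over all curves with the slope shared within a line.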

OSI-906 = compound: C[C@]1(O)C[C@@H](c2nc(-c3ccc4ccc(-c5ccccc5)nc4c3)c3c(N)nccn32)C1 [OSI-906]; conditions: top dose 2.56 µM; top dose inferred
Method: as §1

JNJ-26854165 = compound: c1ccc2c(CCNc3ccc(Nc4ccncc4)cc3)c[nH]c2c1 [JNJ-26854165]; conditions: top dose 10 µM
Method: as §1

JQ1 = compound: Cc1sc2c(c1C)C(c1ccc(Cl)cc1)=N[C@@H](CC(=O)OC(C)(C)C)c1nnc(C)n1-2 [JQ1]
Method: as §1

AMG-706 = compound: CC1(C)CNc2cc(NC(=O)c3cccnc3NCc3ccncc3)ccc21 [AMG-706]; conditions: top dose 2 µM; top dose inferred
Method: as §1

CGP-60474 = compound: OCCCNc1cc(-c2ccnc(Nc3cccc(Cl)c3)n2)ccn1 [CGP-60474]; conditions: top dose 0.256 µM; top dose inferred
Method: as §1

NSC-207895 = compound: CN1CCN(c2ccc([N+](=O)[O-])c3no[n+]([O-])c23)CC1 [NSC-207895]; conditions: top dose 20 µM; top dose inferred
Method: as §1

SB-715992 = compound: Cc1ccc(C(=O)N(CCCN)[C@@H](c2nc3cc(Cl)ccc3c(=O)n2Cc2ccccc2)C(C)C)cc1 [SB-715992]; conditions: top dose 0.128 µM; top dose inferred
Method: as §1

YM155 = compound: COCC[n+]1c2c(n(Cc3cnccn3)c1C)C(=O)c1ccccc1C2=O [YM155]; conditions: top dose 5.12 µM
Method: as §1

Docetaxel = compound: CC(=O)O[C@@]12CO[C@@H]1C[C@H](O)[C@@]1(C)C(=O)[C@H](O)C3=C(C)[C@@H](OC(=O)[C@H](O)[C@@H](NC(=O)OC(C)(C)C)c4ccccc4)C[C@@](O)([C@@H](OC(=O)c4ccccc4)[C@H]21)C3(C)C [Docetaxel]; conditions: top dose 0.0125 µM
Method: as §1

JNK Inhibitor VIII = compound: CCOc1nc(NC(=O)Cc2cc(OC)ccc2OC)cc(N)c1C#N [JNK Inhibitor VIII]; conditions: top dose 10 µM; top dose inferred
Method: as §1

Cyclopamine = compound: CC1=C2C[C@H]3[C@@H](CC=C4C[C@@H](O)CC[C@@]43C)[C@@H]2CC[C@]12O[C@@H]1C[C@H](C)CN[C@H]1[C@H]2C [Cyclopamine]; conditions: top dose 16 µM; top dose inferred
Method: as §1

Belinostat = compound: O=C(/C=C/c1cccc(S(=O)(=O)Nc2ccccc2)c1)NO [Belinostat]; conditions: top dose 20 µM; top dose inferred
Method: as §1

PHA-665752 = compound: Cc1[nH]c(/C=C2\C(=O)Nc3ccc(S(=O)(=O)Cc4c(Cl)cccc4Cl)cc32)c(C)c1C(=O)N1CCC[C@@H]1CN1CCCC1 [PHA-665752]; conditions: top dose 2 µM
Method: as §1

[1] = top dose 1 µM, screen: GDSC drug entry 1218, top dose inferred
[2] = top dose 2.56 µM, screen: GDSC drug entry 163

Cell Line	AUC (FTI-277)	IC50 (FTI-277) [nM]	AUC (OSI-906)	IC50 (OSI-906) [nM]	AUC (JNJ-26854165)	IC50 (JNJ-26854165) [µM]	AUC (JQ1; [1])	IC50 (JQ1; [1]) [nM]	AUC (JQ1; [2])	IC50 (JQ1; [2]) [nM]	AUC (AMG-706)	IC50 (AMG-706) [nM]	AUC (CGP-60474)	IC50 (CGP-60474) [nM]	AUC (NSC-207895)	IC50 (NSC-207895) [µM]	AUC (SB-715992)	IC50 (SB-715992) [nM]	AUC (YM155)	IC50 (YM155) [nM]	AUC (Docetaxel)	IC50 (Docetaxel) [nM]	AUC (JNK Inhibitor VIII)	IC50 (JNK Inhibitor VIII) [µM]	AUC (Cyclopamine)	IC50 (Cyclopamine) [µM]	AUC (Belinostat)	IC50 (Belinostat) [nM]	AUC (PHA-665752)	IC50 (PHA-665752) [nM]
GT3TKB (stomach, adherent)	0.97	> 1020	0.959	> 2560	0.911	> 10	0.976	> 1000	0.575	250	0.989	> 2000	0.675	46.1	0.857	13.3	0.495	7.79	0.019	< 20	0.523	0.897	0.982	> 10	0.99	> 16	0.563	1820	0.99	> 2000
HT (B-cell lymphoma, suspension)	0.99	> 1020	0.988	> 2560	0.962	> 10	0.877	861	0.809	1200	0.99	> 2000	0.657	41.8	0.954	> 20	0.673	23.2	0.021	< 20	0.915	> 12.5	0.985	> 10	0.973	> 16	0.214	198	0.99	> 2000
IST-SL1 (small cell lung carcinoma, semi-adherent)	0.981	> 1020	0.979	> 2560	0.871	9.92	0.845	751	0.678	511	0.978	> 2000	0.833	172	0.72	5.36	0.75	42.8	0.075	< 20	0.682	2.56	0.979	> 10	0.974	> 16	0.154	102	0.975	> 2000
JVM-2 (lymphoid neoplasm, suspension)	0.97	> 1020	0.981	> 2560	0.769	4.62	0.673	214	0.88	> 2560	0.978	> 2000	0.879	> 256	0.953	> 20	0.967	> 128	0.327	93.9	0.957	> 12.5	0.982	> 10	0.979	> 16	0.631	3140	0.978	> 2000
KINGS-1 (glioma, adherent)	0.964	> 1020	0.93	> 2560	0.857	> 10	0.958	> 1000	0.957	> 2560	0.912	> 2000	0.757	120	0.929	> 20	0.885	> 128	0.088	< 20	0.57	1.3	0.971	> 10	0.951	> 16	0.399	594	0.567	204
KM12 (large intestine, adherent)	0.947	> 1020	0.985	> 2560	0.929	> 10	0.984	> 1000	0.713	677	0.985	> 2000	0.81	149	0.963	> 20	0.9	> 128	0.185	32.7	0.756	4.6	0.971	> 10	0.965	> 16	0.455	933	0.92	> 2000
KNS-81-FD (glioma, adherent)	0.965	> 1020	0.979	> 2560	0.857	> 10	0.93	> 1000	0.953	> 2560	0.98	> 2000	0.838	> 256	0.677	4.69	0.971	> 128	0.042	< 20	0.752	5.5	0.978	> 10	0.946	> 16	0.468	994	0.936	> 2000
LB373-MEL-D (melanoma, adherent)	0.962	> 1020	0.936	> 2560	0.99	> 10	0.989	> 1000	0.857	2010	0.958	> 2000	0.708	61	0.899	> 20	0.968	> 128	0.027	< 20	0.88	12.4	0.989	> 10	0.981	> 16	0.423	775	0.99	> 2000
